Measured values from publication PMC4336329 (PLoS ONE, 2015).
The whole screen tested about 310,000 compounds, of which about 14,000 (4.5%) showed an effect of 50% or more. Effects have a minus sign here. The list shows a part of the results. Where a SMILES comes first, the peptide text is derived from it. [ ]: non-standard residue; d: D form. The star is where a group is joined. Cbz = O=C(OCc1ccccc1)*

target: human ether-à-go-go-related gene (hERG) potassium channel (human, UniProt Q12809); assay: primary screen, population patch clamp on CHO cells stably expressing hERG
Sequence (Q12809 whole entry, looked up): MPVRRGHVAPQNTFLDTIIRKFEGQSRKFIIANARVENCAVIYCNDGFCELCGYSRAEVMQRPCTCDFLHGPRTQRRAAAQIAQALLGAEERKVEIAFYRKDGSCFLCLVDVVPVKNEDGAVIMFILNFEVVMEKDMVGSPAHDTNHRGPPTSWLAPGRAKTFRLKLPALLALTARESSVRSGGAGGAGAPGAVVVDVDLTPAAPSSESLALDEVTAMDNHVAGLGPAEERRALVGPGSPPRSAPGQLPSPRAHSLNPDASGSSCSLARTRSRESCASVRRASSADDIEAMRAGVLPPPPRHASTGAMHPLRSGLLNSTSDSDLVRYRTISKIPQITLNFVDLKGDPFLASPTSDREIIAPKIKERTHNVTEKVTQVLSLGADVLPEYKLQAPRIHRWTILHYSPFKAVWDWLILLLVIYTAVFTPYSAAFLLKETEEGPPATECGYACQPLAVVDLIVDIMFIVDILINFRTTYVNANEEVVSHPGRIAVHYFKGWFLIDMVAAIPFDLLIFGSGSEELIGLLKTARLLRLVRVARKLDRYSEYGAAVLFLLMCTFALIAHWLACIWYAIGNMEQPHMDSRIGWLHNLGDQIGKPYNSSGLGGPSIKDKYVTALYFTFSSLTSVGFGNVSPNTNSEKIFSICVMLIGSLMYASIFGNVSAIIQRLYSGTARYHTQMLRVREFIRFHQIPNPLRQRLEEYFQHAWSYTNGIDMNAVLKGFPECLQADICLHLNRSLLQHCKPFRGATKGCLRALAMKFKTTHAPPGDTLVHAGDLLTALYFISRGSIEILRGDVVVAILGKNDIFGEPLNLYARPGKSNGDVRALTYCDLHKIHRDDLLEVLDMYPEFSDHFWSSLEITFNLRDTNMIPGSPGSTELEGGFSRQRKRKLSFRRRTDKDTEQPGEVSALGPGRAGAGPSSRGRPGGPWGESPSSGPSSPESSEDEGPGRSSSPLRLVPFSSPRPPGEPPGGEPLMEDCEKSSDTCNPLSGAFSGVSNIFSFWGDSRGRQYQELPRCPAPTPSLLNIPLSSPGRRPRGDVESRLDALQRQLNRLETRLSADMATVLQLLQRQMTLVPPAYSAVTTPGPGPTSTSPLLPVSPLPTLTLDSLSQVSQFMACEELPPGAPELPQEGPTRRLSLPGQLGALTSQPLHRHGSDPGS
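Also: peak tail current of the secondary pulse compared with the same well before compound.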

Row | Structure (SMILES) | hERG current change (%, negative = inhibition) at 10uM
1 | C=CCn1c(SCC(=O)NCc2ccco2)nc2sc3c(c2c1=O)CCC3 | -13.2%
2 | CCC1CCCCN1C(=O)COC(=O)c1cc2ccccc2cc1O (stereo not shown) | 4.98%
3 | Cc1oc2ccc(NS(=O)(=O)c3ccccc3)cc2c1C(=O)Nc1ccccc1 | 22.5%
4 | COc1cc(C(=O)N[C@H](C(=O)NC2CCCCCC2)C(C)C)cc(OC)c1OC | -12%
5 | Cc1c(C(=O)Oc2ccc(Cl)cc2)n(C)oc1=O | 9.43%
6 | O=C(Nc1cccc(NC(=O)c2sc3ccccc3c2Cl)c1)c1ccco1 | -2.53%
7 | CCSc1nc2cc(OC)c(OC)cc2c(=O)n1CCc1ccccc1 | -3.87%
8 | O=C(COc1ccccc1)NCC(c1ccco1)N1CCN(c2ccc(F)cc2)CC1 (stereo not shown) | -41%
9 | O=C(Cn1cc2c(n1)CCCCC2)Nc1ccccc1Br | -26.4%
10 | NS(=O)(=O)c1ccc(NC(=S)NC2CC2)cc1 | 15.6%
11 | CCCCNC(=O)C1CCCN(S(=O)(=O)c2ccc(S(=O)(=O)NCC(C)C)cc2)C1 (stereo not shown) | -6.95%
12 | CCC(C)COC(=O)C(C#N)c1nc2ccccc2nc1N1CCCCC1 (stereo not shown) | -1.25%
13 | CC(=O)Nc1ccc(S(=O)(=O)N2CCC(NC(=O)c3ccco3)CC2)cc1 | 8.46%
14 | N/C(=N\OC(=O)Cc1ccc(-c2ccccc2)cc1)c1ccccn1 | 19.6%
15 | Cc1cc(C(F)F)nn1CC(=O)Nc1cc([N+](=O)[O-])ccc1F | -29.5%
16 | O=S(=O)(Nc1ccccc1)c1ccc(NS(=O)(=O)c2c(F)cccc2F)cc1 | 4.43%
17 | O=C(C(NS(=O)(=O)c1cccs1)c1ccccc1)N1CCN(c2ccccc2F)CC1 (stereo not shown) | -7.86%
18 | Cc1[nH]nc(N=CC2=C(O)CC(C)(C)CC2=O)c1-c1ccccc1 | 0.302%
19 | N#Cc1ccc(CN2CCN(C(=O)c3cccc(S(=O)(=O)N4CCCCCC4)c3)CC2)cc1 | -75.8%
20 | CN(Cc1nccs1)C(=O)CC1C(=O)NCCN1Cc1ccc(-c2ccccc2)cc1 (stereo not shown) | -8.54%
21 | CCN(CC)S(=O)(=O)c1cc(-c2nn(C)c(=O)c3ccccc23)ccc1C | -53.5%
22 | CCOC(=O)CSc1nnc(-c2c[nH]c3ccccc23)n1CC | -10.3%
23 | COc1ccc(NC(=O)N2CCN(CCC#N)CC2)cc1 | 11.2%
24 | S=C(Nc1ccccc1Cl)Nc1ccc(Cl)cc1Cl | 13.9%
25 | O=C(COc1ccccc1)N1CCN=C1SCc1cccnc1 | 21.2%
26 | COc1cccc(C(C[N+](=O)[O-])c2c(C)[nH]n(-c3ccccc3)c2=O)c1 (stereo not shown) | 15.5%
27 | COc1ccccc1N1CCN(C(=O)C(=O)N/N=C/c2cccc(O)c2)CC1 | -3.36%
28 | CCC(Oc1ccccc1)C(=O)Nc1ccccn1 (stereo not shown) | 8.82%

Row | Structure (SMILES) | hERG current change (%, negative = inhibition) at 10uM
29 | CCCNC(=O)Nc1ccc(F)c(Cl)c1 | 15.6%
30 | CCCC1=C(C(=O)OCC)C(c2ccc(NC(C)=O)cc2)NC(=O)N1 (stereo not shown) | 0.994%
31 | Cc1cccc(CCNC(=O)COc2cc(=O)n(C)c3ccccc23)c1 | -17.6%
32 | COc1ccc(Cn2c(C)c(C)c(C#N)c2NC(=O)Nc2cccc(Cl)c2)cc1 | 15.4%
33 | COc1ccc(N2CCN(C(=O)COC(=O)c3ccc(OC(F)F)cc3)CC2)cc1 | -26.5%
34 | CC(=O)Nc1ccccc1-c1nc2ccc(C(=O)N3CCN(c4cc(C)ccc4C)CC3)cc2[nH]c1=O | -23.5%
35 | CC1C(=O)Nc2ccc(S(=O)(=O)N3CCN(c4ccccc4F)CC3)cc2NC1=O (stereo not shown) | -20.9%
36 | O=C(Nc1ccccc1)c1ccc(S(=O)(=O)N2CCC(C(=O)O)CC2)cc1 | 13.3%
37 | COc1ccc(-n2cnnc2SCc2cnc(-c3ccccc3)s2)cc1 | -18.3%
38 | Cc1ccc(C2C(C(=O)c3ccco3)=C(O)C(=O)N2c2ncccn2)cc1 (stereo not shown) | 9.22%
39 | COC(=O)c1ccc(COc2ccc(C=O)cc2)o1 | -0.0519%
40 | CCCCn1c(N)c(N(CC)C(=O)C2=NN(c3ccccc3)C(=O)CC2)c(=O)[nH]c1=O | 8.33%
41 | CC(C)(C)C1CCC(=NNC(=O)c2ccccc2-n2cccc2)CC1 (stereo not shown) | 9.9%
42 | COc1ccccc1C(c1nnnn1C1CCCC1)N1CCN2CCCC2C1 (stereo not shown) | -5.64%
43 | COCC(=O)Nc1nnc(Cc2ccc(OC)cc2)s1 | 4.46%
44 | CC1CN(c2nc(Nc3ccccc3F)nc(N)c2[N+](=O)[O-])CC(C)O1 (stereo not shown) | -36.7%
45 | COC(=O)[C@H](CCSC)NC(=O)[C@@H](Cc1cnc[nH]1)NC(=O)OCc1ccccc1 (Cbz-[dH]-Met-OMe) | 16.6%
46 | CC(C)C(c1nnnn1C1CCCCC1)N1CCc2ccccc2C1 (stereo not shown) | 2.91%
47 | O=C(NNS(=O)(=O)c1ccc(F)cc1)c1ccccc1 | 18.8%
48 | Cn1cccc1-c1nc2ccccc2n1C | -1.23%
49 | CCN(CC)c1nc(-c2ccccc2)ncc1S(=O)(=O)c1ccc(C)cc1 | 46.9%
50 | CCOC(=O)N1CCC(N(CCN(C)C)C(=S)Nc2ccccc2OC)CC1 | -16.2%
51 | CN(c1ccccc1)S(=O)(=O)c1cccc(NC(=O)Cn2cnc3ccccc3c2=O)c1 | -48.3%
52 | Cc1ccc(S(=O)(=O)N(Cc2ccc(F)cc2)Cc2ccco2)cc1 | 2.28%
53 | COc1ccc(CNC(=O)CN(Cc2ccccc2)C(=O)c2csnn2)cc1 | -32.3%
54 | CC(OC(=O)c1cc2c(ccc3ccccc32)oc1=O)c1nc2ccccc2s1 (stereo not shown) | 6.74%
55 | O=C(Nc1cccc2nsnc12)c1cccs1 | 17.5%
